# PubChem BioAssay AID2675 (National Center for Advancing Translational Sciences (NCATS), 2010)
# About 100 (0.036%) of roughly 280,000 compounds were called active. The shares of active, inactive and inconclusive entries below differ from those in the screen. The call rests on the fitted dose curve; in most records, active means well fitted inhibition curve with a large enough effect in the signal ratio, with a control signal flat (not every such curve was filed as active); inconclusive means small, poorly fitted or top-dose-only effect, or effect the other way, or a change in a side signal; inactive means no such curve, though single readings can be large or run the other way; the % refers to the signal ratio. Where the call is inconclusive, the potency comes from a doubtful curve fit. “Side channel” marks fits to a control or component signal instead of the main read-out.
# Molecular target: Muscleblind-like protein 1 (Homo sapiens) (UniProt Q9NR56)
# Sequence of UniProt Q9NR56 (Q9NR56 whole entry, looked up): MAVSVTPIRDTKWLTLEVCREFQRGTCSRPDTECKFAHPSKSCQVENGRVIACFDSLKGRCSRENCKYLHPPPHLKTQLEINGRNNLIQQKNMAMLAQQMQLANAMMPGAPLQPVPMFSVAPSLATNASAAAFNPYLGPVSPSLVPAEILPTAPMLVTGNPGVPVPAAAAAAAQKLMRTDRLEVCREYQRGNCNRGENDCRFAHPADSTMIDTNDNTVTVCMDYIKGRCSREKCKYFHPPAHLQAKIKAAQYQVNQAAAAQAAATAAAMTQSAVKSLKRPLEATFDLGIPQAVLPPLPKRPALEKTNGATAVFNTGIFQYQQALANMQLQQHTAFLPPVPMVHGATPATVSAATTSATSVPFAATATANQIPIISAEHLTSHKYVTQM
# Assay: qHTS Assay for Inhibitors of MBNL1-poly(CUG) RNA binding
# Conditions: TR-FRET MBNL1-His/biotin-(CUG)12 binding, 665/545 ratio; series mostly up to 57.5 µM
# Outline: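 MBNL1-His + Biotin-(CUG)12, cpd titration 92 nM–58 uM; Tb anti-His Ab 0.055 ng/ul, SA-XL665 5 nM (final); 60 min RT; ratiometric 665/545 nm, Ex 340 nm; normalized to buffer and full-complex controls.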
# Potency means the concentration at half of the fitted maximal effect; tags describe the fitted curve by direction and shape or compound fluorescence and quenching.
row,SMILES,Potency
1,COc1ccccc1N(Cc1cc(=O)[nH]c2ccccc12)C(=O)c1cccc([N+](=O)[O-])c1,"inconclusive: 28.2 µM [quencher, side channel, single point]"
2,CN(C)c1cccc2c1c(NS(=O)(=O)c1cn(C)cn1)nn2C,"inconclusive: 39.8 µM [quencher, side channel, single point]"
3,COc1ccc(NC(=S)N2CCN(Cc3ccco3)CC2)c(OC)c1,"inconclusive: 0.398 µM [fluorescent, side channel, partial curve]"
4,COc1ccc(OC)c(NC(=O)c2cccc(N3C(=O)C4C5C=CC(C6CC56)C4C3=O)c2)c1 (configuration not stated),inactive
5,O=C(COC(=O)c1cc2c(s1)CCC2)Nc1ccc(F)cc1,inactive
6,COc1ccc2ccccc2c1/C=N/n1cnnc1,"inconclusive: 20 µM [quencher, side channel, partial curve]"
7,CCCCc1nc2ccccc2c(N)c1CCC (tested in a mixture with another compound),"inconclusive: 0.1 µM [fluorescent, side channel, full curve, poor fit]"
8,COCCNCCCCOc1ccccc1-c1ccccc1,"inconclusive: 39.8 µM [quencher, side channel, single point]"
9,COc1ccc(/C=N/Nc2cc(C)nc(-n3nc(C)cc3C)n2)c(OC)c1,"inconclusive: 39.8 µM [quencher, side channel, single point]"
10,CC(=O)Oc1ccccc1N1C(=O)c2ccc(C(=O)O)cc2C1=O,"inconclusive: 25.1 µM [quencher, side channel, single point]"
11,COc1ccc(C2=NS(=O)(=O)N(C)C(C(=O)N3CCc4ccccc4C3)=C2)cc1OC,"inconclusive: 12.6 µM [quencher, side channel, partial curve]"
12,CC(C)(C)c1nn(-c2ccccc2)c2[nH]c(=O)c(CNCc3ccco3)cc12,inactive
13,O=C(CCC1CCCN(C(=O)Cc2cccc(F)c2)C1)N1CCN(c2ccccn2)CC1 (configuration not stated),"inconclusive: 3.98 µM [inhibitor, single point]"
14,CCn1c(C)nc2cc(C(=O)N/N=C/c3ccc(O)c(O)c3O)ccc21,"inconclusive: 22.4 µM [quencher, side channel, partial curve]"
15,COc1cc(/C=N/NC(=O)C(=O)NCc2ccco2)cc(Cl)c1O,"inconclusive: 14.1 µM [quencher, side channel, partial curve]"
16,N#Cc1c(N2CCN(C(=O)c3ccco3)CC2)nc(-c2ccccc2)c2c1CCCC2,inactive
17,O=C(N/N=C/c1ccncc1)c1ccccn1,"inconclusive: 10 µM [quencher, side channel, partial curve]"
18,O=[N+]([O-])c1ccc(/C=N\NS(=O)(=O)c2ccc(F)cc2)o1,"inconclusive: 35.5 µM [quencher, side channel, partial curve]"
19,CCOc1ccccc1OCC(=O)OCC(=O)NNC(=O)c1ccc([N+](=O)[O-])cc1,"inconclusive: 14.1 µM [quencher, side channel, partial curve]"
20,O=C(Nc1ccc(F)cc1)c1nc2c(nnn2Cc2cccc3ccccc23)c(=O)[nH]1,inactive
21,COc1cccc2c(=O)n(CC(=O)Nc3cccc(F)c3)ccc12,inactive

row,SMILES,Potency
1,COc1ccc(NC(=O)c2cc3c([nH]c4ccccc43)c(C)n2)cc1,"inconclusive: 39.8 µM [fluorescent, side channel, single point]"
2,COCCCn1c(=NC(=O)c2ccccc2)c(C#N)cc2c(=O)n3cccc(C)c3nc21,"inconclusive: 1.41 µM [quencher, side channel, full curve]"
3,Cc1nn(C)c(NC(=O)c2ccc([N+](=O)[O-])cc2)c1Cl,"inconclusive: 14.1 µM [quencher, side channel, partial curve]"
4,Cc1cc2ncn(-c3nnnn3-c3ccccc3)c2cc1C,inactive
5,CN(C)C=NC1=NN(c2cccc(C(F)(F)F)c2)CC1,"inconclusive: 3.16 µM [quencher, side channel, single point]"
6,CCNC(=O)/C(=C/c1ccco1)NC(=O)/C=C/c1ccccc1,"inconclusive: 14.1 µM [quencher, side channel, partial curve]"
7,Cn1c(-c2ccc3ccccc3n2)nc2cnccc21,"inconclusive: 25.1 µM [quencher, side channel, single point]"
8,CC1CC(=O)N(c2ccc(NCCc3ccccc3)c([N+](=O)[O-])c2)C1=O (configuration not stated),"inconclusive: 3.16 µM [quencher, side channel, full curve]"
9,CCOc1cc(NC(=O)c2cccs2)c(OCC)cc1NC(=O)CCC(=O)NCc1ccccn1,inactive
10,COC(=O)c1cc(C(=O)N2CCN(c3ncccn3)CC2)cc([N+](=O)[O-])c1,"inconclusive: 14.1 µM [quencher, side channel, partial curve]"
11,CCC(C)(C)n1nnnc1C(c1cc2cc3c(cc2[nH]c1=O)OCO3)N1CCCCC1 (configuration not stated),inactive
12,CC(C)N1CCC(=NNc2ccc([N+](=O)[O-])cc2S(=O)(=O)N2CCOCC2)CC1,"inconclusive: 31.6 µM [quencher, side channel, single point]"
13,CCC(=O)c1ccc(OCC(=O)N2CCCC2)c(OC)c1,"inconclusive: 35.5 µM [quencher, side channel, single point]"
14,C=CCc1cccc(Cl)c1OCCCNC1CCCC1,inactive
15,CC(=O)c1ccc(N2CCN(c3ccc(C(N)=O)cc3[N+](=O)[O-])CC2)cc1,"inconclusive: 1.58 µM [quencher, side channel, full curve]"
16,CCN1CCN(CCC2Oc3cc([N+](=O)[O-])ccc3NC2=O)CC1 (configuration not stated),"inconclusive: 14.1 µM [quencher, partial curve]"
17,COc1ccc(C)cc1N1C(=N)/C(=C2/Nc3ccccc3S2)C(c2ccccc2)C1=O (configuration not stated),inactive
18,CCOc1ccccc1/C=N/Nc1nc2c(N)ncnc2n1[C@H]1O[C@@H](CO)[C@H](O)[C@@H]1O,"inconclusive: 22.4 µM [quencher, side channel, single point]"
19,O=C(CSCc1ccccc1Br)NNC(=S)NCc1ccco1,inactive
20,Cc1cc([N+](=O)[O-])cnc1NC(C)c1ccccc1 (configuration not stated),"inconclusive: 3.98 µM [quencher, side channel, full curve]"
21,Cc1[nH]nc(Nc2ccccc2)c1[N+](=O)[O-],"inconclusive: 10 µM [quencher, partial curve]"

row,SMILES,Potency
1,CC1CCN(c2ccc(S(=O)(=O)NC3=NCCCCC3)cc2[N+](=O)[O-])CC1,"inconclusive: 35.5 µM [quencher, side channel, single point]"
2,CCOC(=O)SC1=N/C(=C\c2ccc(N(C)C)cc2)C(=O)S1,"inconclusive: 15.8 µM [quencher, partial curve]"
3,Cc1ccc(S/C=C\C(=O)c2ccccc2)cc1,inactive
4,Cc1cc(-c2ccccc2)c2c(=O)n(-c3ccccc3)[nH]c2n1,"inconclusive: 15.8 µM [quencher, partial curve]"
5,COc1ccc(CN2CSC(=S)N(Cc3ccc(OC)cc3)C2)cc1,inactive
6,COc1ccccc1-c1n[nH]c(=S)o1,inactive
7,O=C(NCCN1CCCCC1)c1ccco1,"inconclusive: 39.8 µM [quencher, side channel, single point]"
8,COC(=O)C1=C(C)Nc2c(c(=O)n(C)c(=O)n2C)C1c1ccncc1 (configuration not stated),"inconclusive: 100 µM [inhibitor, partial curve, poor fit]"
9,Cc1ccsc1CN(C)CC(=O)Nc1ccc([N+](=O)[O-])cc1Cl,"inconclusive: 14.1 µM [quencher, side channel, partial curve]"
10,Cc1cccc(NC(=S)N2CCN(S(=O)(=O)c3ccc(F)cc3)CC2)c1,inactive
11,Cc1nc(N2CCN(c3ccccn3)CC2)c2c(C)c(C(=O)Nc3ccc(F)cc3F)sc2n1,inactive
12,CS(=O)(=O)/C(C#N)=C/c1cccn1S(=O)(=O)c1ccccc1,"inconclusive: 22.4 µM [quencher, side channel, partial curve]"
13,COc1ccc(/C=C2\SC(=S)N(NC(=O)c3ccncc3)C2=O)cc1OC,"inconclusive: 14.1 µM [quencher, side channel, partial curve]"
14,C=CCNC(=O)/C(=C\C=C\c1ccccc1)NC(=O)c1ccccc1Cl,"inconclusive: 25.1 µM [quencher, side channel, partial curve]"
15,O=S(=O)(c1cccc2nsnc12)N1CCN(C/C=C\c2ccccc2)CC1,"inconclusive: 17.8 µM [quencher, side channel, partial curve]"
16,CCN(CC(=O)Nc1ccc(NC(C)=O)cc1)C(=O)C(c1ccccc1)c1ccccc1,"inconclusive: 0.1 µM [fluorescent, side channel, full curve]"
17,Cc1nc(S/C(=C\c2ccc(-c3ccc(C(=O)O)c(Cl)c3)o2)C(=O)O)n[nH]1,"inconclusive: 39.8 µM [quencher, single point]"
18,O=C1N/C(=C\c2ccc(O)cc2)C(=O)c2ccccc21,"inconclusive: 15.8 µM [quencher, side channel, partial curve]"
19,CCCNC(=O)/C(C#N)=C1\N=C(NC(=O)c2ccco2)c2ccccc21,"inconclusive: 11.2 µM [quencher, side channel, partial curve]"
20,COc1cc(O)cc2cc3c(c(O)c12)C(=O)CC(C)(O)O3 (configuration not stated),"inconclusive: 14.1 µM [quencher, side channel, partial curve]"
